Test results reported in EPA's CvTdb concentration-time database.
Several values for one entry are separate records, joined by “and”; a condition that tells them apart may be missing. Equal entries are not always repeated. The source gives many values for each of these; only a part stands here.

Key:
Assay in all cases: concentration in plasma after dosing
Rat [1] = conditions: dosed: 2-Hydroxy-4-methoxybenzophenone, 8 mg/kg, iv, Female, F344
Mouse [2] = conditions: 6 h; dosed: 2-Hydroxy-4-methoxybenzophenone; 50 mg/kg; iv; Female; B6C3F1
Rat [3] = test system: Rat
Mouse [4] = conditions: dosed: 2-Hydroxy-4-methoxybenzophenone, B6C3F1
Mouse [5] = conditions: 8 h; dosed: 2-Hydroxy-4-methoxybenzophenone; 500 mg/kg; oral; Female; B6C3F1
Rat [6] = conditions: dosed: Perfluorohexanoic Acid, 40 mg/kg, oral, Male, Harlan Sprague Dawley
Rat [7] = conditions: dosed: Perfluorohexanoic Acid, 40 mg/kg, Male, F344
Rat [8] = conditions: 6 h; dosed: Perfluorohexanoic Acid; 80 mg/kg; oral; Female; Harlan Sprague Dawley

COc1ccc(C(=O)c2ccccc2)c(O)c1 [2-Hydroxy-4-methoxybenzophenone]
Rat [1]
Conditions | concentration in plasma [ng/mL]
1 h | 183
12 h | 5.61

Conditions | concentration in plasma [ng/mL]
Mouse [2] | 51.1
Mouse [5] | 34.5

concentration in plasma [ng/mL], Rat [3], dosed: 2-Hydroxy-4-methoxybenzophenone, F344
Conditions | Female | Male
0.5 h, 8 mg/kg, iv | 583 | 625
0.5 h, 100 mg/kg, oral | 46.6 | 60.2
0.5 h, 250 mg/kg, oral | 435 | 141
0.5 h, 500 mg/kg, oral | 276 | 172
1 h, 8 mg/kg, iv | 229 | 248
1 h, 100 mg/kg, oral | 43.4 | 130
1 h, 250 mg/kg, oral | 335 | 305
1 h, 500 mg/kg, oral | 1940 | 1430
1.5 h, 8 mg/kg, iv | 111 | 131
1.5 h, 100 mg/kg, oral | 139 | 50.2
1.5 h, 250 mg/kg, oral | 278 | 276
2 h, 100 mg/kg, oral | 19.4 | 57.7
2 h, 250 mg/kg, oral | 53.9 | 275
2 h, 500 mg/kg, oral | 410 | 850
2.5 min, 100 mg/kg, oral | 67.7 | 10.5
2.5 min, 250 mg/kg, oral | 12.4 | 20.2
4 h, 8 mg/kg, iv | – | 53.5
4 h, 500 mg/kg, oral | 120 | –
5 h, 100 mg/kg, oral | 9.43 | 14.4
5 min, 8 mg/kg, iv | 4360 | 8120
5 min, 100 mg/kg, oral | 12.4 | 5.98
5 min, 250 mg/kg, oral | 35.9 | 27.4
5 min, 500 mg/kg, oral | 29.3 | 17.7
6 h, 8 mg/kg, iv | 16.2 | 18.6
6 h, 100 mg/kg, oral | – | 16.5
6 h, 250 mg/kg, oral | 12.8 | 30.3
6 h, 500 mg/kg, oral | 98 | –
8 h, 8 mg/kg, iv | 11.9 | 19.8
8 h, 100 mg/kg, oral | 24.2 | 9.92
8 h, 250 mg/kg, oral | 12.8 | 35.6
8 h, 500 mg/kg, oral | 111 | 242
10 h, 8 mg/kg, iv | 18.1 | –
10 h, 250 mg/kg, oral | 15.9 | 28.5
10 h, 500 mg/kg, oral | – | 145
12 h, 8 mg/kg, iv | 6.04 | –
12 h, 500 mg/kg, oral | 33.8 | 42.7
16 h, 8 mg/kg, iv | 8.64 | 7.13
16 h, 500 mg/kg, oral | 26.1 | 16.6
25 min, 250 mg/kg, oral | – | 25.6

concentration in plasma, Mouse [4]
Conditions | Female | Male
0.5 h, 50 mg/kg, iv | 3100 ng/mL | 2820 ng/mL
0.5 h, 100 mg/kg, oral | 47.5 ng/mL | 53.3 ng/mL
0.5 h, 250 mg/kg, oral | 2010 ng/mL | 319 ng/mL
0.5 h, 500 mg/kg, oral | 889 ng/mL | 532 ng/mL
0.75 h, 100 mg/kg, oral | 24.1 ng/mL | 50.2 ng/mL
1 h, 50 mg/kg, iv | 811 ng/mL | 1030 ng/mL
1 h, 100 mg/kg, oral | 20.6 ng/mL | 50.6 ng/mL
1 h, 250 mg/kg, oral | 82.8 ng/mL | 97.4 ng/mL
1 h, 500 mg/kg, oral | 3450 ng/mL | 1460 ng/mL
1.5 h, 50 mg/kg, iv | 495 ng/mL | 442 ng/mL
1.5 h, 100 mg/kg, oral | 48.1 ng/mL | 26.9 ng/mL
1.5 h, 250 mg/kg, oral | 55.1 ng/mL | 68.9 ng/mL
2.5 min, 250 mg/kg, oral | 18.2 ng/mL | –
2.5 min, 500 mg/kg, oral | 3060 ng/mL | 570 ng/mL
4 h, 50 mg/kg, iv | 76.8 ng/mL | 73.1 ng/mL
4 h, 100 mg/kg, oral | 11.4 ng/mL | 15 ng/mL
4 h, 250 mg/kg, oral | 36.5 ng/mL | 64.5 ng/mL
4 h, 500 mg/kg, oral | 67.1 ng/mL | 79.8 ng/mL
5 h, 100 mg/kg, oral | 9.92 ng/mL | 17.4 ng/mL
5 h, 250 mg/kg, oral | 34.3 ng/mL | 28.8 ng/mL
5 min, 50 mg/kg, iv | 19100 ng/mL | 38600 ng/mL
5 min, 100 mg/kg, oral | 61.5 ng/mL | 17 ng/mL
5 min, 250 mg/kg, oral | 79.8 ng/mL | 65.2 ng/mL
5 min, 500 mg/kg, oral | 125 ng/mL | 62.2 ng/mL
6 h, 50 mg/kg, iv | 31.2 ng/mL | 57.7 ng/mL
6 h, 100 mg/kg, oral | 7 ng/mL | 20.1 ng/mL
6 h, 250 mg/kg, oral | 84 ng/mL | 15.8 ng/mL
6 h, 500 mg/kg, oral | 58 ng/mL | 29.6 ng/mL
7 h, 250 mg/kg, oral | 7.85 ng/mL | 16.5 ng/mL
8 h, 50 mg/kg, iv | 19.7 ng/mL | 31.2 ng/mL
8 h, 500 mg/kg, oral | 35.2 ng/mL | 43.3 ng/mL
10 h, 500 mg/kg, oral | 50.6 ng/mL | 17.1 ng/mL
12 h, 50 mg/kg, iv | 11 ng/mL | 12.4 ng/mL
12 h, 500 mg/kg, oral | 20.6 ng/mL and 9.67 ng/mL | 17.1 ng/mL
16 h, 50 mg/kg, iv | 20.4 ng/mL | 18.2 ng/mL
16 h, 500 mg/kg, oral | 5.14 ng/mL | –

O=C(O)C(F)(F)C(F)(F)C(F)(F)C(F)(F)C(F)(F)F [Perfluorohexanoic Acid]
concentration in plasma [ng/mL]
Conditions | 0.5 h | 3 h | 5 min | 12 h
Rat [6] | – | 17600 | 21400 | –
Rat [7] | 118000 | – | – | 507

concentration in plasma [ng/mL], Rat [3], dosed: Perfluorohexanoic Acid, 40 mg/kg
Conditions | 0.25 h | 0.5 h | 0.75 h | 1 h | 1.5 h | 3 h | 5 min | 6 h | 12 h | 24 h
Female, Harlan Sprague Dawley | 139000 | 56900 | 38000 | 38100 | – | – | – | 93.4 | 36.1 | –
Male, F344 | 169000 | 131000 | 68000 | 76500 | 44100 | 15800 | 295000 | 5050 | 555 | 1550
Male, Harlan Sprague Dawley | – | – | – | – | 31100 | – | – | – | – | –

concentration in plasma [ng/mL], Rat [3], dosed: Perfluorohexanoic Acid, oral, Harlan Sprague Dawley
Conditions | 0.25 h | 0.5 h | 0.75 h | 1 h | 3 h | 5 min | 6 h | 9 h | 12 h | 24 h
40 mg/kg, Female | 45000 | 31200 | 54100 | – | – | – | 11400 | 412 | 32.5 | –
40 mg/kg, Male | 39200 | – | – | 44500 | 16200 | 17900 | 15000 | – | – | –
80 mg/kg, Female | 42500 | 64200 | 101000 | 101000 | 24200 | 52600 | 10700 | 316 | 133 | 28.7
80 mg/kg, Male | – | – | – | – | – | – | 25500 | – | 5190 | –
160 mg/kg, Female | 161000 | 181000 | 265000 | 144000 | 52100 | 93200 | 3120 | 1100 | 342 | 112
160 mg/kg, Male | 184000 | 171000 | 243000 | 182000 | 150000 | 72700 | 29000 | 6990 | 5190 | 1050

Conditions | concentration in plasma [ng/mL]
Rat [8] | 1010
